Source: ChEMBL document CHEMBL4888484, “Replenishing the malaria drug discovery pipeline: Screening and hit evaluation of the MMV Hit Generation Library 1 (HGL1) against asexual blood stage Plasmodium falciparum ,using a nano luciferase reporter read-out” (2022)
Hit rate of the full screen: of about 150,000 compounds, about 540 (0.36%) showed an effect of 50% or more. Some of the results follow.

These compounds were tested on Plasmodium falciparum (assay: Primary screen in NF54 nanoGlo assay, in single point, at 2uM, 72h; a lower Z score goes with more inhibition). Settings: timepoint 72 hour.
Format: functional, Erythrocyte

Row | Compound | % Inhibition [%] | Z score
1 | O=C1CO[C@H]2CN(Cc3cccnc3)C[C@H]2N1Cc1cccc(C(F)(F)F)c1 | -1 | 0.07
2 | COc1cccc(C(=O)NC2CCCN(C(=O)OC(C)(C)C)C2C)n1 (stereo not drawn) | -11 | 0.99
3 | CC(NC(=O)NCc1nnc2ccccn12)C1CCCO1 (stereo not drawn) | -11 | 1.39
4 | CCOC(CCN[C@@H](C)c1cc(OC)ns1)OCC | -13 | 2.69
5 | CN(C)c1ccc(C(=O)NC2CCCCC2)cc1 | -14 | 1.22
6 | O=C(Nc1csc(-c2cccc(NC(=O)c3cccc4ccccc34)c2)n1)c1ccccc1 | -26 | 3.1
7 | Cc1ccccc1N1C[C@H](Cc2ccccc2)N(C(=O)CO)CC1=O | -6 | 0.85
8 | O=S1(=O)CC(O)C(N(Cc2ccccn2)Cc2ccco2)C1 (stereo not drawn) | 1 | -0.12
9 | O=c1c(C(F)(F)F)cccn1Cc1nccs1 | -14 | 3.03
10 | Cc1cccn2c(=O)cc(CN3CC(=O)N(CC4CC4)C3)nc12 | -18 | 2.3
11 | O=C1NC(=O)C2(CCN(C(=O)c3ccc4c(c3)CCC4)CC2)N1 | 11 | -1.35
12 | O=C(c1cn(C2CCCCC2)nn1)N1CCC[C@H](CN2CCCCC2)C1 | 6 | -0.86
13 | O=C(C1CCC(F)(F)CC1)N(CC(F)F)c1cccc(Cl)c1 | -6 | 0.63
14 | O=C(c1ccccc1-c1ccccc1F)N1C[C@H](O)[C@@H](F)C1 | -15 | 2.06
15 | O=C(Nc1nc(CC(=O)N2C[C@@H](O)C[C@H]2CO)cs1)c1ccco1 | -1 | 0.13
16 | O=C1CCC(=O)N1c1ncn(Cc2ccc(F)cc2Cl)n1 | 5 | -0.58
17 | C[C@H]1CN(CCCNC(=O)c2cc3[nH]cnc3cc2F)CCCO1 | -3 | 0.29
18 | O=C(Nc1nc2c(s1)CCCC2)c1ccc(-c2ccccc2)cc1 | -5 | 0.6
19 | Cc1cscc1NC(=O)N1CCO[C@@H](CS(C)(=O)=O)C1 | -1 | 0.07
20 | Cc1cc(C(=O)Nc2ccc(N(C)C(C)C)c(F)c2)c(C)n1-c1nccs1 | -15 | 1.87
21 | O=C(c1ccc(F)c2occc12)N1CCC[C@H]1c1ncc[nH]1 | -7 | 0.91

Row | Compound | % Inhibition [%] | Z score
22 | O=S(=O)(Nc1ccccc1)[C@H]1CCCN(c2ccc3nccnc3n2)C1 | -18 | 1.8
23 | FC(F)(F)c1ccc(CN2CC[C@H](c3nc4ncccc4[nH]3)C2)cc1 | 25 | -2.8
24 | CN(CC1COc2ccccc2O1)C(=O)C1COCCN1CC(F)(F)F (stereo not drawn) | -5 | 0.63
25 | CCc1nnc(CNC(=O)Nc2nc3c(s2)CCCC3)o1 | -11 | 1.92
26 | c1ccc2c(NC3CCCCCC3)ncnc2c1 | -7 | 0.76
27 | Cc1nccn1CC(=O)Nc1ccc(N2CCCCC2)cn1 | 0 | -0.05
28 | CN1C(=O)COC12CCN(C(=O)[C@H]1C[C@@H]1c1cccc(Br)c1)CC2 | -4 | 0.73
29 | Cc1ccc2ncccc2c1CN1CCN(CCO)[C@@H]2CS(=O)(=O)C[C@@H]21 | 6 | -1.01
30 | S=c1cc(-c2ccccc2)n(Cc2ccco2)c2c1CCCC2 | 54 | -6.88
31 | CCO[C@@H](CNC(=O)c1cscn1)c1ccccc1 | 3 | -0.31
32 | CC(C)n1cc(C(=O)N[C@H]2CCOC[C@@H]2O)cn1 | -18 | 1.55
33 | Cc1cc(C(=O)N2CCC3(CC2)[C@H](O)C[C@@H]3OCCO)nc(C)n1 | 3 | -0.46
34 | CC(C)(CO)NC(=O)c1ccc(Cl)c(F)c1 | -7 | 1.11
35 | O=C(NC1CCN(c2cc3c(nn2)CCCC3)CC1)[C@@H]1CC=CCC1 | -9 | 1.55
36 | COc1ccc(OC)c(-c2cc(C(=O)NCCn3ccc(-c4ccccn4)n3)n(C)n2)c1 | 4 | -0.54
37 | O=C(Cn1nc2c(Oc3cccc(F)c3)nccn2c1=O)Nc1ccc(Cl)cc1F | -20 | 1.93
38 | CCCN1CCN(Cc2ccc(Cl)cc2)[C@H]2CS(=O)(=O)C[C@H]21 | -12 | 1.48
39 | Cc1ccc2c(c1C)NC(=O)C21NC(Cc2ccc(O)cc2)[C@H]2C(=O)N(CCc3ccccc3)C(=O)[C@H]21 (stereo partly drawn) | -11 | 0.95
40 | O=C(Nc1ccc2ccccc2c1)c1sc2cccc(Cl)c2c1Cl | -5 | 0.7
41 | N#Cc1ccncc1NC1CCC(F)C1 (stereo not drawn) | -11 | 2.1
42 | Clc1ccc(OCc2noc(-c3cnccn3)n2)c(Cl)c1 | -6 | 0.98

Row | Compound | % Inhibition [%] | Z score
43 | O=C(C1CCCC1)N1C[C@@H]2CN(CCc3ccc(O)cc3)C[C@]2(C(=O)O)C1 | -12 | 1.12
44 | C[C@H](NC(=O)C1CC2(CCC2)C1)c1ncnn1C | -1 | 0.11
45 | O=C(N1CCC(n2ccnn2)CC1)C1(Cc2ccccc2)CCC1 | -11 | 1.66
46 | COc1cccc(NC(=O)[C@H](C)OC(=O)C2CCN(C(N)=O)CC2)c1 | -14 | 1.28
47 | CC(C)C(=O)N1CCn2nc(CNC(=O)N[C@H](C)c3ccccc3)cc2C1 | -6 | 0.6
48 | CC(C#N)(CCc1ccccc1)NC(=O)C1CC2C=CC1C2 (stereo not drawn) | 25 | -3.33
49 | CC(NC(=O)N1CCC[C@H]1CN1CCOCC1)c1nc(Cc2ccccc2)no1 (stereo partly drawn) | 4 | -0.7
50 | CCc1ccc(-c2cc(C(=O)NCc3ccncc3)c3ccc(Cl)c(C)c3n2)cc1 | -6 | 1.06
51 | CCn1c(CN2CCN(C3CCN(C(C)C)CC3)[C@@H](CCO)C2)nc2ccccc21 | -11 | 1.3
52 | Cc1ccccc1CS(=O)(=O)N[C@H](CN)CC(C)C | 12 | -1.27
53 | CCCn1nccc1C(=O)N(C)Cc1csc(-c2cccs2)n1 | -2 | 0.37
54 | CCC(=O)N1CCO[C@@H](COc2ccc(C)cc2)C1 | -13 | 1.29
55 | O=C(Nc1cccc(C(F)(F)F)c1)NC1CCC(CC2CCC(NC(=O)Nc3cccc(C(F)(F)F)c3)CC2)CC1 (stereo not drawn) | -10 | 1.05
56 | Cc1cc(C(=O)NCc2ccco2)ccc1N(C)S(C)(=O)=O | -4 | 0.59
57 | O=C1CN(C(=O)c2ccc(-c3cnn(CC4CC4)c3)cc2)CCN1 | -17 | 2.25
58 | CCN(CC)CCNC(=O)C1CCN(c2c(NC(C)=O)c(C)nn2-c2ccc(Cl)cc2)CC1 | -1 | 0.25
59 | CO[C@H]1CC[C@H](NC(=O)c2ccc(F)cc2O)CC1 | -11 | 1.31
60 | Cc1noc(C)c1CCC(=O)N1C[C@H](NS(C)(=O)=O)[C@@H](C(C)C)C1 | 6 | -0.73
61 | CCn1ncnc1CN1CCN(C)[C@H](c2ccccc2)C1 | 16 | -2.08
62 | COc1ncc(CNC(=O)[C@H]2CCc3cnc(C)n3C2)cc1Cl | -4 | 0.84
63 | CC(C)OCC(=O)Nc1nccs1 | -8 | 1.18

Row | Compound | % Inhibition [%] | Z score
64 | Cc1cc(C)cc(COC(=O)CN2CCS(=O)(=O)CC2)c1 | -24 | 2.24
65 | O=S(=O)(C1CC1)N1CC2(CCC2)c2ccccc21 | -2 | 0.2
66 | N#Cc1sc2ccccc2c1N1CCC(N2CCCNC2=O)CC1 | 24 | -3.22
67 | CCn1cnnc1CN(C)c1nccc(-c2c(C)nn(-c3ccccc3)c2C)n1 | -1 | 0.08
68 | Cc1ccccc1CCNCc1c(C(=O)O)c(C)n(-c2ccc(Cl)cc2)c1C | -7 | 0.94
69 | COc1ccc(C(=O)N(CC(=O)N2CCCN(c3ccc(-c4ccc(OC)c(OC)c4)nn3)CC2)Cc2ccco2)cc1 | 3 | -0.5
70 | COc1ccccc1CCn1c(C)cc(=O)c(C(=O)N[C@@H](C)c2cccs2)c1C | 3 | -0.39
71 | O=C(NCC[C@H](O)C1CC1)NC1CCOCC1 | -3 | 0.47
72 | c1nc(CN2C[C@@H]3CC[C@H]2C3)n(-c2ccc3c(c2)OCO3)n1 | -7 | 1.38
73 | CC(C)CC(=O)N(Cc1ccccc1OS(=O)(=O)C(C)C)C(C)C | -2 | 0.2
74 | COc1ccc(-c2nc(OC)nn2-c2cccc(NC(=O)c3ccc(C(F)(F)F)cc3)c2)cc1 | -7 | 1.05
75 | COc1ccc(OC)c(C(O)CNC2CCCc3c2cnn3C)c1 (stereo not drawn) | -8 | 0.86
76 | COc1ccc(OC)c2c1cc(C(=O)Nc1ccc(Oc3cccc4[nH]ccc34)nc1)n2C | -2 | 0.19
77 | CC1(C)C[C@@](C)(c2ccccc2)c2ccccc2N1C(=O)Cc1ccccc1 | -3 | 0.37
78 | CN(C)CCOc1cccc2c1c(NC(=O)c1ncn[nH]1)nn2-c1cccc(F)c1 | 12 | -1.9
79 | COc1cccc(CN2CCC(F)(C(=O)NC3CC3)CC2)c1 | -6 | 0.83
80 | Cc1ccc(CNc2c[nH]nc2C(F)(F)F)nc1 | 3 | -0.54
81 | Cc1nc(C[C@H]2CCCN(S(=O)(=O)c3cccnc3C#N)C2)no1 | -1 | 0.21
82 | CN(Cc1ccco1)C(=O)NC[C@H]1CCCO1 | -7 | 0.6
83 | Nc1nc(NCc2cn3ccccc3n2)cc(C2CC(O)C2)n1 (stereo not drawn) | 1 | -0.13
84 | C[C@]1(C#N)CCCN(CCCCc2ccccc2)C1 | -10 | 1.27
